From PubChem BioAssay (Tox21)
Several values for one entry are separate records, joined by “and”; a condition that tells them apart may be missing. Equal entries are not always repeated. The inconclusive results got no clear call from the source; some entries with a clear call stand among them for comparison. A potency beside an inconclusive call is a rough fit, not a confirmed value. Activity calls are given as the source filed them. Unless noted, calls follow the shape of the dose curve; as a rule, active = well fitted curve in the direction sought with a large enough effect in the repeat runs; inconclusive = weak or mixed curves; inactive = no such curve, though single readings can be large; an effect the other way counts as inactive or inconclusive.

Columns and labels:
[1] = qHTS assay to identify small molecule antagonists of the estrogen receptor alpha (ER-alpha) signaling pathway using the BG1 cell line in the presence of 0.1 nM 17-beta-estradiol - cell viability counter screen (AID 1259241); also: nearly all actives have a fitted effect of over 40% in size
Outline: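 VM7Luc4E2 cells (endogenous ER-alpha, 4×ERE-luciferase), hormone-starved 5 days in charcoal-stripped FBS, were treated with compounds plus 0.1 nM 17beta-estradiol for 22 hr at 37C; viability read in same wells as CellTiter-Fluor live-cell protease fluorescence.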

[2] = qHTS assay to identify small molecule antagonists of the androgen receptor (AR) signaling pathway using the MDA cell line in the presence of 0.5 nM R1881 - cell viability counter screen (AID 1259242); also: nearly all actives have a fitted effect of over 45% in size
Outline: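 Cells seeded at 3,000/well and allowed 5 hr at 37C, 0% CO2 before compound transfer and R1881 (0.5 nM final) addition; 16 hr later, live-cell protease fluorescence indicated cytotoxicity.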

[3] = target: Androgen receptor (Homo sapiens) (UniProt P10275); experiment: qHTS assay to identify small molecule antagonists of the androgen receptor (AR) signaling pathway using the MDA cell line in the presence of 0.5 nM R1881 (AID 1259243); also: nearly all actives have a fitted effect of over 50% in size
Outline: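 Luminescence from an AR/GR-responsive MMTV-luciferase construct in MDA-kb2 breast carcinoma cells, read 30 min after ONE-Glo, following 16 hr co-treatment with compounds and 0.5 nM R1881.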

[4] = qHTS assay to identify small molecule antagonists of the sonic hedgehog signaling (Shh) pathway (AID 1259369; calls by dose curve; also: nearly all actives have a fitted effect of over 45% in size)
Outline: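 Read-out is luminescence from a firefly luciferase gene controlled by the Gli1 response element, in 3T3Gli1-Luc cells pre-incubated 4hr then exposed to compounds and conditioned medium for 24hr.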

[5] = target: Estrogen receptor beta (Homo sapiens) (UniProt Q92731); experiment: qHTS assay to identify small molecule agonists of the estrogen receptor beta (ER-beta) signaling pathway (AID 1259377; active = well fitted activation curve with a large enough effect in the signal ratio in the repeat runs, not every such curve was filed as active; inconclusive = weak or mixed curves, or effect the other way; the % refers to the signal ratio; as to activation: % is scaled to controls: 0 for no effect and ±100 for the full control effect); details: ER-beta-UAS-bla HEK293T, beta-lactamase FRET ratio, 16 h; activation: at 92.4 µM (top of the series) unless noted
Outline: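 ER-beta-UAS-bla HEK293T (GripTite) cells carrying a UAS-driven beta-lactamase reporter, in medium with 2% charcoal-stripped FBS, were exposed to compounds for 16 hr at 37C; LiveBLAzer B/G FRET substrate was then added and fluorescence read after 2 hours at room temperature.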

[6] = target: Estrogen receptor beta (Homo sapiens) (UniProt Q92731); experiment: qHTS assay to identify small molecule antagonists of the estrogen receptor beta (ER-beta) signaling pathway (AID 1259378; active = well fitted inhibition curve with a large enough effect in the signal ratio in the repeat runs, not every such curve was filed as active; inconclusive = weak or mixed curves, or effect the other way; inactive = no such curve, though single readings can be large or run the other way; the % refers to the signal ratio; as to activity, negative = inhibition: % is scaled to controls: 0 for no effect and ±100 for the full control effect); details: ER-beta-UAS-bla HEK293T, beta-lactamase FRET ratio, 16 h; activity, negative = inhibition: at 92.4 µM (top of the series) unless noted
Outline: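 ER-beta-UAS-bla HEK293T cells in 2% charcoal-stripped FBS medium treated with compound plus 1nM final 17-beta-estradiol for 16 hr at 37C. Beta-lactamase reporter read by FRET substrate fluorescence after 2 hours at room temperature.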

[7] = qHTS assay to identify small molecule agonists of the androgen receptor (AR) signaling pathway in the presence of an antagonist - cell viability counter screen (AID 1259379); also: nearly all actives have a fitted effect of over 25% in size
Outline: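 Each compound was tested at 15 concentrations on MDA-kb2 cells in the presence of 3.0uM nilutamide. Viability was measured by CellTiter-Fluor fluorescence after a 16 hr incubation at 37C in a CO2-free atmosphere.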

[8] = target: Estrogen receptor (Homo sapiens) (UniProt P03372); experiment: qHTS assay to identify small molecule antagonists of the estrogen receptor alpha (ER-alpha) signaling pathway using the BG1 cell line in the presence of 0.1 nM 17-beta-estradiol (AID 1259244); also: nearly all actives have a fitted effect of over 50% in size
Outline: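 Luciferase signal from VM7Luc4E2 ERE-reporter cells, co-dosed with test compound and 0.1 nM final 17beta-estradiol for 22 h, read with ONE-Glo.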

[9] = qHTS assay to identify small molecule phospholipidosis (PLD) inducers (AID 1259344; active = well fitted curve in the direction sought with a large enough effect; inconclusive = small, poorly fitted or top-dose-only effect, or another doubt; inactive = no such curve, though single readings can be large; an effect the other way counts as inactive or inconclusive)
Outline: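 Image-based: LipidTOX Red pit count/intensity per well and per cell; HepG2, 24 h compound at 37 C, PFA fixation, Hoechst counterstain.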

[10] = qHTS assay to identify small molecule agonists of the sonic hedgehog signaling (Shh) pathway - cell viability counter screen (AID 1259366); also: nearly all actives have a fitted effect of over 50% in size
Outline: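 NIH/3T3-derived 3T3 Gli1-Luc cells (stable Gli1-responsive firefly luciferase reporter) were seeded, rested 4 hr at 37 C/5% CO2, then exposed to compounds in DMSO for 24 hr; viability was read by CellTiter-Fluor fluorescence in the same wells.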

[11] = qHTS assay to identify small molecule antagonists of the sonic hedgehog signaling (Shh) pathway - cell viability counter screen (AID 1259367); also: nearly all actives have a fitted effect of over 55% in size
Outline: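 Tox21 library chemicals were tested on a Gli1-Luc NIH/3T3 clone (2,000 cells/well) stimulated by conditioned medium; viability was quantified as fluorescence from CellTiter-Fluor reagent added at 23 hr.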

[12] = qHTS assay to identify small molecule agonists of the estrogen receptor beta (ER-beta) signaling pathway - cell viability counter screen (AID 1259380); also: nearly all actives have a fitted effect of over 30% in size
Outline: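 Compounds dissolved in DMSO were pin-transferred onto ER-beta-UAS-bla HEK293T cells that had settled 6 hr, and exposure ran 16 hr at 37C. Following the reporter read, CellTiter-Glo luminescence after 30 min at room temperature indicated cytotoxicity.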

[13] = qHTS assay to identify small molecule HDAC inhibitors (AID 1259364);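 also: wild-type HCT-116 cells with endogenous class I/II HDAC activity; nearly all actives have a fitted effect of over 45% in size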
Outline: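 HCT-116 wt cells, 1,500/well, overnight attach. Compounds (DMSO) 2 h, 37 °C. HDAC-Glo I/II, 30 min RT. Luminescence.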

[14] = qHTS assay to identify small molecule antagonists of the estrogen receptor beta (ER-beta) signaling pathway - cell viability counter screen (AID 1259382); also: nearly all actives have a fitted effect of over 55% in size
Outline: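 CellTiter-Glo ATP luminescence measured after the LiveBLAzer read in the same wells; ER-beta-UAS-bla HEK293T cells, 16 hr compound treatment with 1nM 17-beta-estradiol agonist at 37C, 5% CO2.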

[15] = qHTS assay to identify small molecule agonists or antagonists of the thyroid stimulating hormone receptor (TSHR) signaling pathway - wild type cell line counter screen (AID 1259384; calls by dose curve; as to cAMP activity change: % is scaled to controls: 0 for no effect and ±100 for the full control effect); details: HEK293 wild type, cAMP HTRF counter-screen; cAMP activity change: at 92.4 µM (top of the series), stronger effect = higher value unless noted
Outline: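 Wild-type Hek293 cells, 800/well, 18 h at 37C, then compound with Ro20-1724 for 30 min RT. cAMP by HTRF (cAMP-d2/anti-cAMP cryptate), 1 h RT, fluorescence read. 15 concentrations, triplicates.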

[16] = qHTS assay to identify small molecule HDAC inhibitors - cell viability counter screen (AID 1259365); also: nearly all actives have a fitted effect of over 50% in size
Outline: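 Wild-type HCT-116 cells were seeded at 1,500 per well, incubated overnight at 37 C, then exposed to compounds in DMSO for 2hr. Viability was read by CellTiter-Glo luminescence after 30min at room temperature.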
Potency is read from the fitted curve at half-maximal effect; tags tell the direction and shape of the fitted curve or compound fluorescence and quenching.

Sequence of UniProt Q92731 (Q92731 whole entry, looked up): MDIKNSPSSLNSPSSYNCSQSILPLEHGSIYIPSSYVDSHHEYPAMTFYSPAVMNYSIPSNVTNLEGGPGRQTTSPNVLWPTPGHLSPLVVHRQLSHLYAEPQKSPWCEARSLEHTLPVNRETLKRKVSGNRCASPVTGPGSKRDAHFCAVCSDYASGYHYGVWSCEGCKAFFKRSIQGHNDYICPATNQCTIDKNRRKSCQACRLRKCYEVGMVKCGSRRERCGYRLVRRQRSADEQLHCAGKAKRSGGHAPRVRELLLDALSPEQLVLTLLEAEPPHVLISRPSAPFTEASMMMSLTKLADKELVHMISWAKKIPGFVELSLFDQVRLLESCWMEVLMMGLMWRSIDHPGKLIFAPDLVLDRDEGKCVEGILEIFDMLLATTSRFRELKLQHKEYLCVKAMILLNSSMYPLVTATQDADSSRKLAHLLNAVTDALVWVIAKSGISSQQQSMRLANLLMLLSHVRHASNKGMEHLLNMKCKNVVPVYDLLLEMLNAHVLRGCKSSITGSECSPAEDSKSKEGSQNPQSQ
Sequence of UniProt P10275 (P10275 whole entry, looked up): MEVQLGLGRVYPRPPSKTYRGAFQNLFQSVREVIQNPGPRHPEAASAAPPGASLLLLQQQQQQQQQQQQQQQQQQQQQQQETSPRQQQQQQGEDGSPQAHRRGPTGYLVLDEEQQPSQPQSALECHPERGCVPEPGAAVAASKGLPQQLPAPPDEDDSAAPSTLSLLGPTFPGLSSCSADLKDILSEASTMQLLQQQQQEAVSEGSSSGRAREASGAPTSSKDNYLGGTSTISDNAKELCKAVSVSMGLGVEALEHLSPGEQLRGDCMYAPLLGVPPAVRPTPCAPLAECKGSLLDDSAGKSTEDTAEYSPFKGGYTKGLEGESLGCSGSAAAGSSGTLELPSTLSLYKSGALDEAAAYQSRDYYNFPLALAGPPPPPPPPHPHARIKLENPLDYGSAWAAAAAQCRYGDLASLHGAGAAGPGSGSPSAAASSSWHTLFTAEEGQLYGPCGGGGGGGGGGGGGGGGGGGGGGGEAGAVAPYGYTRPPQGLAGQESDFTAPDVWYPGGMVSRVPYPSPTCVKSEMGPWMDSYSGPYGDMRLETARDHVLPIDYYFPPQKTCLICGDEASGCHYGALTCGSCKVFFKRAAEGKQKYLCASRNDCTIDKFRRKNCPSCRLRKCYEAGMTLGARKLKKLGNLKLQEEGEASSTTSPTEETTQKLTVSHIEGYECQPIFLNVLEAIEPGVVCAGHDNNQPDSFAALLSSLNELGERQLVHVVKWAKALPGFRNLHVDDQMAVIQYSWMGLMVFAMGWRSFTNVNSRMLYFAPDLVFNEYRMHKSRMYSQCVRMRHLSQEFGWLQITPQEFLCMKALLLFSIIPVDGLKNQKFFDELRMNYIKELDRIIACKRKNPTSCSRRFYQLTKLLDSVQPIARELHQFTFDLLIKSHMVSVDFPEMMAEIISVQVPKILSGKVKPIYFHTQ
Sequence of UniProt P03372 (P03372 whole entry, looked up): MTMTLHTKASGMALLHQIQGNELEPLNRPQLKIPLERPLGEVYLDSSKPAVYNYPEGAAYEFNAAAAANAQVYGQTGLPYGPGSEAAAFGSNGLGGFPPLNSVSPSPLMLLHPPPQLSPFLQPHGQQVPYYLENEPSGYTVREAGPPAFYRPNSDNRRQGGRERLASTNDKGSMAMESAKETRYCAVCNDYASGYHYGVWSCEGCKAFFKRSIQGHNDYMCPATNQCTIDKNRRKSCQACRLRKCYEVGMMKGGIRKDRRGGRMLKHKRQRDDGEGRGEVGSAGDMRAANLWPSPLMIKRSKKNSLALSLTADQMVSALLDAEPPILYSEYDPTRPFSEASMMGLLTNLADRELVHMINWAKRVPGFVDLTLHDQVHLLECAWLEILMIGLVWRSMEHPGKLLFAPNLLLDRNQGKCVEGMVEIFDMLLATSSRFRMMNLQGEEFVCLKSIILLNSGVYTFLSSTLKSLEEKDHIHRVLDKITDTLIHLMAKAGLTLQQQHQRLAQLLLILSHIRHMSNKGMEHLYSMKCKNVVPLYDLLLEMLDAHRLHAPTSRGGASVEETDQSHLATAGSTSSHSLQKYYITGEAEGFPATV

Nc1nc2ccccc2n1Cc1ccc(F)cc1
Potency [1]: inconclusive: 26.6 µM [cytotoxic, partial curve]
Potency [2]: inconclusive: 26.6 µM [cytotoxic, partial curve]
Potency [3]: active: 7.5 µM
Potency [4]: inconclusive: 0.00596 nM [inhibitor, full curve, poor fit]
Potency [5]: inconclusive: 29.8 µM [falling, partial curve]
activity, negative = inhibition [6]: inconclusive: -12.8% [at 42.5 µM]
Potency [7]: active: 26.6 µM

COc1ccc2cc1Oc1ccc(cc1)C[C@H]1c3c(cc4c(c3Oc3cc5c(cc3OC)CCN(C)[C@@H]5C2)OCO4)CCN1C
Potency [1]: inconclusive: 11.9 µM [cytotoxic, partial curve]
Potency [3]: inconclusive: 33.5 µM [inhibitor, single point]
Potency [8]: inconclusive: 21.1 µM [inhibitor, partial curve]
Potency [9]: inconclusive: 5.01 µM [activator, partial curve, poor fit]
Potency [10]: active: 11.9 µM
Potency [4]: active: 3760 nM

Fc1ccc(C(c2ccc(F)cc2)N2CCNCC2)cc1
Potency [1]: inactive
Potency [3]: inconclusive: 29.8 µM [inhibitor]
Potency [10]: inconclusive: 4.22 µM [cytotoxic, full curve]
Potency [11]: inconclusive: 4.73 µM [cytotoxic, full curve]
Potency [5]: inactive
Potency [6]: inactive
Potency [7]: inconclusive: 33.5 µM [cytotoxic]
Potency [12]: inconclusive: 15 µM [cytotoxic, partial curve]

COc1ccc2cc3[n+](cc2c1OC)CCc1cc2c(cc1-3)OCO2
Potency [1]: inconclusive: 9.76 µM [cytotoxic, full curve] and inconclusive: 16.8 µM [cytotoxic, partial curve]
Potency [2]: inconclusive: 19.5 µM [cytotoxic, full curve]
Potency [13]: inconclusive: 61.6 µM [inhibitor, single point]
Potency [4]: inconclusive: 69.1 nM [inhibitor, full curve]
Potency [12]: active: 48.9 µM and inconclusive: 33.5 µM [cytotoxic, single point]
Potency [14]: inconclusive: 48.9 µM [cytotoxic, partial curve]
Potency [15]: inconclusive: 27.5 µM [partial curve]
cAMP activity change [15]: inconclusive: -7.48% [at 42.5 µM, stronger effect = higher value]

COC(=O)C1=C(C)NC(C)=C(C(=O)OCCN(C)Cc2ccccc2)C1c1cccc([N+](=O)[O-])c1 (stereo not given)
Potency [1]: active: 54.2 µM and inconclusive: 15 µM [cytotoxic, partial curve]
Potency [8]: inconclusive: 33.5 µM [inhibitor, single point]
Potency [9]: inconclusive: 12.6 µM [activator, single point]
Potency [10]: active: 30.5 µM and active: 11.9 µM
Potency [11]: active: 48.3 µM and active: 2.37 µM
Potency [4]: active: 68.2 µM and inconclusive: 2.98 µM [inhibitor, full curve]
Potency [7]: active: 60.8 µM and inconclusive: 29.8 µM [cytotoxic, single point]
Potency [12]: active: 68.2 µM and active: 29.8 µM

C=CC(=O)OCCOCCOC(=O)C=C
Potency [1]: active: 61.4 µM
Potency [2]: inconclusive: 61.4 µM [cytotoxic, single point]
Potency [8]: inconclusive: 68.9 µM [inhibitor, single point]
Potency [5]: inconclusive: 61.4 µM [rising, single point]
Potency [6]: inconclusive: 61.4 µM [partial curve]
Potency [7]: active: 61.4 µM
Potency [12]: active: 24.4 µM
Potency [14]: inconclusive: 27.4 µM [cytotoxic, single point]

C=CC(=O)OCCOCC(CC)(COCCOC(=O)C=C)COCCOC(=O)C=C
Potency [1]: active: 14.3 µM
Potency [2]: inconclusive: 31.9 µM [cytotoxic, partial curve]
Potency [16]: inconclusive: 40.2 µM [rising, partial curve]
Potency [11]: active: 7.14 µM
Potency [5]: inconclusive: 89.9 µM
Potency [6]: inconclusive: 89.9 µM [rising, single point]
Potency [12]: active: 89.9 µM
Potency [14]: inconclusive: 89.9 µM [cytotoxic, single point]

Nc1nnc(-c2ccc([N+](=O)[O-])o2)o1
Potency [1]: active: 61.1 µM
Potency [2]: inconclusive: 48.6 µM [cytotoxic, partial curve]
Potency [8]: active: 54.5 µM
Potency [10]: inconclusive: 68.6 µM [cytotoxic, single point]
activity, negative = inhibition [6]: inconclusive: -32.4%
Potency [7]: active: 54.5 µM
Potency [12]: inconclusive: 21.7 µM [cytotoxic, partial curve]
